The other results are listed elsewhere or left out.
These sequences were tested against no compound (DMSO) (assay: log2 fold change of degron read counts, EGFP-low vs EGFP+ sorted cells; higher = lower degron-EGFP level without compound (poor expression or instability)). Conditions: compound: DMSO control; 18 h.
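Also: jurkat cells carrying a lentiviral library of mutant zinc finger degrons fused to EGFP plus mCherry, mCherry+ cells FACS sorted, degron abundance counted by next-generation sequencing.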

Sequence | log2 fold change of degron read counts
FGCNQCGHNFTQKGNLLRHIKL | 0.78
LKCNQCGFSCTQKGNLLRHIKL | 0.105
FCCPQCGAVFTQKGNLLRHIKL | -0.329
FDCPICGRHFTQKGNLLRHIKL | -1.02
LACNQCGFKCTQKGNLLRHIKL | 0.33
FNCNVCGAAFTQKGNLLRHIKL | -0.232
FICNQCGRGFTQKGNLLRHIKL | -1.64
FGCNQCGHPFTQKGNLLRHIKL | 0.68
LTCEICGFSCTQKGNLLRHIKL | -0.801
FKCPICGAGFTQKGNLLRHIKL | -0.0464
FNCPICGAHFTQKGNLLRHIKL | -0.0644
FTCNQCGAFFTQKGNLLRHIKL | -0.57
FDCPICGAMFTQKGNLLRHIKL | -0.396
FYCEQCGAGFTQKGNLLRHIKL | -0.669
FKCPVCGAIFTQKGNLLRHIKL | -0.205
FKCNQCGRAFTQKGNLLRHIKL | -0.766

Sequence | log2 fold change of degron read counts
FWCEVCGAWFTQKGNLLRHIKL | 0.848
FQCEVCGATFTQKGNLLRHIKL | -1.59
FMCPICGAGFTQKGNLLRHIKL | 0.00124
FFCPICGRGFTQKGNLLRHIKL | -1.68
FNCPICGAFFTQKGNLLRHIKL | 0.579
FACEICGHNFTQKGNLLRHIKL | -0.78
FACEVCGAHFTQKGNLLRHIKL | -1.72
LGCPICGFNCTQKGNLLRHIKL | 1.7
FSCDICGACFTQKGNLLRHIKL | -1.9
FHCDQCGAAFTQKGNLLRHIKL | -1.62
FHCDQCGAYFTQKGNLLRHIKL | -1.45
LHCPICGFICTQKGNLLRHIKL | 1.12
FICDICGAEFTQKGNLLRHIKL | -3.16
FKCNQCGHGFTQKGNLLRHIKL | 0.0732
FACDQCGACFTQKGNLLRHIKL | -1.62
FYCDVCGAHFTQKGNLLRHIKL | -0.829

— the supplement of paper PMC12645437, “Orthogonal IMiD-Degron Pairs Induce Selective Protein Degradation in Cells” (ACS Chemical Biology, 2025)
